Reference: publication PMC9574860, “Chemical Toolkit for PARK7: Potent, Selective, and High-Throughput” (Journal of Medicinal Chemistry, 2022)
In all, about 7,900 compounds went through this assay and about 400 (5.1%) showed an effect of 50% or more. The list shows a part of the results.

Target: Parkinson's disease protein 7 (PARK7/DJ1) (human, UniProt Q99497)
Test: primary screen, percent inhibition; read as competition with a fluorescent probe by fluorescence polarization; higher = more effect of the substance
Conditions: 100 µM
Summary of the method: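 Covalent fragments at 100 μM final were incubated 2 h with 0.2 μM PARK7, then 20 nM probe JYQ-107 added for a further 2 h. Fluorescence polarization read at 480/520 nm; relative FP loss versus reference controls gave remaining enzyme activity.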

Chain of Parkinson's disease protein 7 (PARK7/DJ1) (Q99497 whole entry, looked up): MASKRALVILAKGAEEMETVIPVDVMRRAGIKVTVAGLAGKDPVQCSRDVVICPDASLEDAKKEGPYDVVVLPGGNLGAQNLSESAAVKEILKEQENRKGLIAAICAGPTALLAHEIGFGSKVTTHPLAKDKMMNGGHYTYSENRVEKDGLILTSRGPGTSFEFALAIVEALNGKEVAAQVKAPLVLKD

Structure (SMILES)	Inhibition %
COc1ccc(NC(=O)C(C#N)=Cc2ccco2)cc1	4.06%
O=C(CCl)Nc1nc(-c2cc3ccccc3o2)cs1	5.44%
Cc1ccn(S(=O)(=O)c2cc(C)c(Cl)cc2C)n1	5.92%
CCN(CC)C(=O)Oc1cccc(F)c1C#N	13.8%
O=C(C=Cc1ccccn1)N1CCCC(N2CCCC2)C1 (centres unmarked)	4.3%
CC(C)(CNC(=O)CCl)c1ccccc1	16.4%
CS(=O)(=O)Nc1ccc(B(O)O)cc1	9.91%
C=CC(=O)NC1CC(=O)N(C(C)C)C1 (centres unmarked)	8.51%
N#Cc1nc(N2CCCC2CO)ccc1Cl (centres unmarked)	2.52%
CC1(C)SC(=O)NC1=O	13.1%
Cn1cc(CN2CCC=C(F)C2)cc1C#N	13.5%
N#Cc1c(Cl)nc2sccn12	4.22%
N#CC(=Cc1cnn(Cc2ccccc2)c1)C(=O)O	4.92%
C=CC(=O)N[C@]1(C)C[C@H](C)CC(C)(C)C1	9.09%
CN(CC1COc2ccccc2O1)C(=O)CCl (centres unmarked)	96.7%
C=CC(=O)N[C@@H]1CCO[C@H]1c1ccc(OC)nc1 (racemic)	7.53%
CCOc1ccccc1OS(=O)(=O)c1ncn(C)c1Cl	6.17%
C=CC(=O)N1CCOCC1c1ncn(Cc2ccccc2)n1 (centres unmarked)	9.27%
O=S(=O)(C=Cc1ccccc1)NC1CCCSC1 (centres unmarked)	6.78%
Cc1ncc(C(=O)NS(=O)(=O)C=Cc2ccccc2)s1	12.5%
C=CC(=O)NCC(C)(O)c1cnn(C)c1 (centres unmarked)	7.37%
C=CC(=O)N(C)CC1CCCOC1 (centres unmarked)	3.5%
CC(C)C(NC(=O)Cn1cnc(C#N)n1)c1cccs1 (centres unmarked)	-3.14%
O=C(CCl)c1ccc(Cl)s1	94.6%
Cc1cc(B2OC(C)(C)C(C)(C)O2)ccc1S(N)(=O)=O	-0.734%

Structure (SMILES)	Inhibition %
Nc1cc(S(=O)(=O)F)c(F)cc1NC1CC1	41.5%
C=CC(=O)NC(C)c1nc2ccccc2n1C(F)F (centres unmarked)	12%
OB(O)c1cc(F)ccc1OCC1CCCCO1 (centres unmarked)	1.56%
N#Cc1ccc(N[C@H]2CC[C@@H](C(=O)N3CCCC3)C2)cn1	4.36%
C=CC(=O)N1CCCCC1c1noc(C2CC2)n1 (centres unmarked)	29.3%
O=C(CN1CCSC1=O)Nc1cccc(Cl)c1	4.9%
COCC(C)NS(=O)(=O)C=Cc1ccccc1 (centres unmarked)	0.573%
O=C(CCl)N1CCc2ccc([N+](=O)[O-])cc21	5.89%
COc1cc(S(=O)(=O)n2ccnc2C)ccc1Cl	4.92%
Cc1nn(C)c(Cl)c1C=CC(=O)N1CCC(CN)CC1.Cl	15.7%
C=CC(=O)N1CCC2(COC2)C1	10.9%
C=CC(=O)NCc1nc(-c2ccc(F)cc2)c[nH]1	8.67%
C=CC(=O)N[C@@H]1C[C@H]1C1CCOCC1 (racemic)	5.38%
N#CC(=Cc1cccc(O)c1)c1nnc2n1CCCCC2	4.82%
C=CC(=O)N1CCCN(c2ccccc2)CC1	13.3%
O=C(CCl)N1c2ccccc2SCC1c1ccccc1 (centres unmarked)	1.2%
C=CC(=O)N1CC(C2CCCC(C)C2)C1 (centres unmarked)	7.43%
CC(CNc1ccc(C#N)nc1)Cn1cccn1 (centres unmarked)	6.43%
CC1CCCN(C(=O)Cn2cnc(C#N)n2)C1 (centres unmarked)	3.31%
C=CC(=O)N1CCOC2(CCOCC2)CC1	7.24%
C=CC(=O)N1CCC(c2ccccc2)C1C (centres unmarked)	13.8%
CCC1(O)CCN(c2cccnc2C#N)C1 (centres unmarked)	15.2%
CC1CC(Sc2ccccc2)C(=O)O1 (centres unmarked)	1.08%
C=CC(=O)NC12CC(C(F)(F)F)(C1)C2	4.93%
CC1(C)OB(c2cccc(Br)c2)OC1(C)C	1.19%

Structure (SMILES)	Inhibition %
C=CC(=O)NC1CCc2ncc(Br)n2C1 (centres unmarked)	11.8%
O=C(CCl)NCC(=O)c1cccs1	15.1%
Cc1noc(C)c1-c1csc(CN2C(=O)CCC2=O)n1	23.2%
C=CC(=O)N1C[C@H](F)C[C@H]1C(=O)N1CCOCC1	10.5%
O=C(O)c1ccc(CS)cc1	17.3%
Cc1ccc(NC(=O)CN2CCSC2=O)cc1F	3.32%
CC(C)(C)C(=O)NNS(=O)(=O)c1ccc(S(=O)(=O)F)cc1	6.55%
Cc1cc(N2CCCC2)ccc1NC(=O)CCl	2.66%
CN1CCOC(CNS(=O)(=O)C=Cc2ccccc2)C1 (centres unmarked)	6.48%
O=C(Nc1cn[nH]c1)Oc1ccccc1	32.9%
CCOc1ccc(C(C)(C)C)cc1S(=O)(=O)n1cccn1	-1.91%
Nc1nc(SC2CCOC2=O)nc2sccc12 (centres unmarked)	10.8%
CC1(C)OB(c2ccsc2C#N)OC1(C)C	1.56%
COCCNC(=O)C(C#N)=Cc1c(F)cccc1Cl	18%
N#Cc1nc(C(=O)O)ccc1Cl	7.31%
Sc1nc(CN2CCOCC2)nc2ccccc12	5.16%
Cc1cc(C=C(C#N)C(N)=O)ccc1Oc1cccnc1	2.77%
Cn1ccnc1CN(C#N)c1ccc(F)c(Cl)c1	-3.2%
O=C(CCl)N1CC=C(c2c[nH]c3ccccc23)CC1	51.5%
O=C1OCCC1N1CCCC(c2nc3ccccc3o2)C1 (centres unmarked)	0.5%
Cc1ccc(C=CS(=O)(=O)N2CCNC(=O)C2)cc1	10.2%
COC(=O)c1cccc(NC(=O)CCl)c1	25.2%
FC(F)(F)c1ccc(C2CO2)cc1 (centres unmarked)	5.75%
Cc1nn(-c2ccccc2)c(Cl)c1C=CC(=O)N1CCC1	22.9%
CC(=Cc1ccccc1)C=C(C#N)C(=O)NC1CC1	2.94%

Structure (SMILES)	Inhibition %
C=CCNC(=O)C(C#N)=Cc1cc(C)c(O)c(C)c1	6.22%
C=CC(=O)N1CCC(OCC2CC2)CC1	-0.254%
C=CC(=O)N1CCSC(C(F)(F)F)C1 (centres unmarked)	3.31%
Cc1nc(C#N)c(NC(C)c2ccccc2)o1 (centres unmarked)	1.91%
N#Cc1ccnc(SC2CCOC2=O)c1 (centres unmarked)	17.8%
CC1(C)OB(c2ccnn2-c2ccccc2)OC1(C)C	14.9%
C=CC(=O)NC1CCN(C(=O)c2ccco2)CC1	7.43%
CN(C1CCC(CO)CC1)S(=O)(=O)C=Cc1ccccc1 (centres unmarked)	7.5%
O=C(NCC1CCCCC1O)c1cccnc1S (centres unmarked)	8.44%
N#Cc1ncccc1OCCn1cccn1	10.9%
CCn1c(S)nc2ccsc2c1=O	-2.86%
Cc1csc(C2C(=O)NC(S)=C(C#N)C23CCCCC3)n1 (centres unmarked)	2.61%
CN(Cc1cccc(F)c1)C1CCOC1=O (centres unmarked)	2.06%
Cc1ccc(C=CC(=O)N2CCCC(C(=O)O)C2)o1 (centres unmarked)	3.06%
O=C(NCC12CCCN1CCC2)c1cccc(S(=O)(=O)F)c1	86.4%
CCC(NC(=O)c1cccnc1S)c1c(C)noc1C (centres unmarked)	8.89%
Cc1ccccc1CC(=O)NNC(=O)CCl	24%
C=CC(=O)Nc1cccc2c1N(C(C)=O)CC2	4.01%
CN(C)c1nc(CNC(=O)c2ccc(C#N)[nH]2)cs1	6.61%
O=C(CN1CCSC1=O)Nc1cc(Cl)cc(Cl)c1	0.338%
CN(C)c1cnc(C#N)cn1	-1.78%
CC1(C)OB(c2ccc3c(c2)NC(=O)C3=O)OC1(C)C	9.64%
O=C(CC1OCCCO1)N1CCSC2CCCCC21 (centres unmarked)	19%
CC1(C)OB(c2ccc(F)c(CN)c2)OC1(C)C.Cl	3.76%
C=CC(=O)NCCC1C[C@@H]2C=C[C@H]1C2 (some centres unmarked)	5.8%

Structure (SMILES)	Inhibition %
N#CC(=CC1CC=CCC1)C(N)=O (centres unmarked)	1.65%
N#CC(=Cc1cccnc1)C(=O)Nc1ccc(F)cc1	3.53%
Nc1cc(N)nc(S)n1	6.46%
N#Cc1nccnc1N1CCC(C(F)(F)F)CC1	2.52%
CC1CC(NC(=O)c2n[nH]c3ccccc23)C(=O)O1 (centres unmarked)	9.75%
O=C(c1ccccc1O)N1CCC(C2OCCO2)CC1	6.55%
O=C(CCl)c1c[nH]c2ccncc12	24.6%
N#Cc1c(NC(=O)CCl)sc2c1CCCC2	4.78%
C=CC(=O)NCC(C)c1nncn1C (centres unmarked)	28.8%
C=CC(=O)N1CCn2cccc2C1c1ccccc1 (centres unmarked)	5.2%
CC(C)(C)NS(=O)(=O)C1(C2CO2)CCC1 (centres unmarked)	7.81%
Cc1cc(C)cc(NC2C=CS(=O)(=O)C2)c1 (centres unmarked)	11.5%
O=C(O)c1ccc(C2OCCO2)cc1	7.82%
C=CC(=O)NCc1noc(C2CC2)n1	15.2%
C=CC(=O)NCC1CCc2nc(C(F)(F)F)cn2C1 (centres unmarked)	1.96%
C=CC(=O)N(C)CC1COc2ccccc2O1 (centres unmarked)	3.26%
Cl.Cn1cncc1CCCl	5.21%
C=CC(=O)N(C)C1CCN(CC)C(C)C1 (centres unmarked)	10.6%
COc1ccc(-c2nc(C#N)c(NCC(C)C)o2)cc1	6.61%
COc1ccccc1-c1nnc(-c2ccc(S(=O)(=O)F)cc2)o1	9.83%
C=CC(=O)N1CCCC1(C)c1ccccc1 (centres unmarked)	3.15%
Cc1nc(C=CC(=O)N2CCCCC2CN)cs1 (centres unmarked)	11.1%
